Measured values reported in PubChem BioAssay AID1745845 (National Center for Advancing Translational Sciences (NCATS), 2022).
Where “and” joins values, the source holds several entries; their conditions need not be identical. Equal values may be shown once. Among all 360,000 compounds or so, about 2,600 (0.72%) were called active. Inconclusive means that the source gave no clear call. Such entries were picked first, then a sample of the others. Calls follow the shape of the dose curve; as a rule, active = well fitted inhibition curve with a large enough effect; inconclusive = small, poorly fitted or top-dose-only effect; inactive = no such curve, though single readings can be large or run the other way. Where the call is inconclusive, the potency comes from a doubtful curve fit.

test: Primary qHTS for Inhibitors of ATXN expression; details: HEK-293 ATXN2-luciferase reporter, luminescence, 24 h; activity change, negative = inhibition: at 57 µM (top of the series); also: nearly all actives have a fitted effect of over 55% in size
Procedure, shortened: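 ATXN2-luciferase reporter cells (luciferase flanked by upstream and downstream ATXN2 gene portions) were treated 24 h at 37 °C with compounds at up to 57 uM. SteadyGlo luminescence gave expression; GF-AFC fluorescence gave viability.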
% is scaled to controls: 0 for no effect and ±100 for the full control effect; potency is read from the fitted curve at half-maximal effect; tags tell the direction and shape of the fitted curve.

Row | SMILES | Potency | activity change, negative = inhibition
1 | C=CCNS(=O)(=O)c1nc(C)c(Cl)c(C)c1C#N | inactive | –
2 | Cc1nc2ccccc2n1C(=O)c1ccc(Cl)cc1[N+](=O)[O-] | inactive | –
3 | Cc1ccc(NC(=O)CCN2C(=O)NC(C)(C)C2=O)cc1F | inactive | –
4 | Cc1cc(C(=O)OCC(=O)Nc2ccc(F)cc2F)c(C)o1 | inactive | –
5 | Cc1ccc2sc(NNC(=O)c3ccc4c(c3)OCCO4)nc2c1C | inconclusive: 39.8 µM [inhibitor, single point] | –
6 | CCC1(c2ccccc2)SCC(c2ccccc2)=NC1=O (stereo not given) | inactive | –
7 | CCOc1ncccc1C(=O)Nc1ccc2nc(C)sc2c1 | inactive | –
8 | CCOC(=O)c1ccc(N2C(=O)c3n[nH]c(-c4ccco4)c3C2c2ccc([N+](=O)[O-])cc2)cc1 (stereo not given) | inconclusive: 39.8 µM [inhibitor, single point] | –
9 | N#C/C(=C(/O)CN1CCN(c2ccccc2F)CC1)c1nc(-c2ccc(Cl)cc2)cs1 | inconclusive: 28.2 µM [inhibitor, partial curve, poor fit] | –
10 | CCc1ccc(C2=NNC(=Nc3cccc(S(=O)(=O)N(C)C)c3)SC2)cc1 | inconclusive: 39.8 µM [inhibitor, single point] | –
11 | Cc1sc(NC(=O)c2ccccc2F)c(CN2CCCCC2C)c1C (stereo not given) | inactive | –
12 | CCn1c(=O)cc(OCC(=O)N2CCN(c3ccccc3OC)CC2)c2ccccc21 | inactive | –
13 | CC(NC(=O)c1ccc(F)cc1)c1ccc2c(c1)CCCC2 (stereo not given) | inactive | –
14 | CCCCN(C=O)c1c(CC)nc2c(OCc3ccc(Cl)cc3)cccn12 | inconclusive: 28.2 µM [inhibitor, single point] | –
15 | COC(=O)/C(=C/c1c[nH]c2ccccc12)NC(C)=O | – | inactive: -14.1% [at 11.3 µM]
16 | CC(C)(C)OC(=O)NCCCC[C@H](NC(=O)c1nc[nH]c1C(=O)NCc1ccccc1)C(=O)OC(C)(C)C | inconclusive: 39.8 µM [inhibitor, partial curve, poor fit] | –
17 | COc1ccc(C(=O)NCCn2cc(SCc3cc(C)ccc3C)c3ccccc32)cc1 | inconclusive: 25.1 µM [inhibitor, partial curve, poor fit] | –
18 | Cc1cc(NC(=O)CC2CCCC2)n(-c2nc3ccccc3[nH]2)n1 | inactive | –
19 | O=C(c1ccncc1)N(c1ccc2oc3c(c2c1)CCCC3)S(=O)(=O)c1ccc(F)cc1 | inactive | –
20 | c1ccc(-c2nc3nonc3nc2-c2ccccc2)cc1 | inconclusive: 6.31 µM [inhibitor, full curve, poor fit] | –
21 | C[C@@H](c1ccccc1)N1C[C@@H](COCc2ccccc2)Oc2cc(N3CC[C@H](N(C)C)C3)ccc2S1(=O)=O | inactive | –
22 | CN(c1cccc(NC(=O)CN(c2ccc(Cl)c(Cl)c2)S(=O)(=O)c2ccccc2)c1)S(C)(=O)=O | inconclusive: 39.8 µM [inhibitor, partial curve, poor fit] | –
23 | Cc1cc(C)cc(-n2c(C)nc3cc(C(=O)NCc4ccc(F)cc4)ccc32)c1 | inconclusive: 12.6 µM [inhibitor, partial curve] | –

Row | SMILES | Potency | activity change, negative = inhibition
24 | C=CC[C@@H](CC(=O)N[C@@H](CO)Cc1ccccc1)C(=O)N[C@H](COC(=O)[C@@H](CC=C)CC(=O)OC(C)(C)C)Cc1ccccc1 | inconclusive: 39.8 µM [inhibitor, single point] | –
25 | Cc1nn(-c2ccccc2)c(C)c1C(=O)OC(C)C(=O)NC1CCCCC1 (stereo not given) | inactive | –
26 | CC(C)(C)NC(=O)[C@H]1CN(Cc2cccnc2)CCN1C[C@@H](O)C[C@@H](Cc1ccccc1)C(=O)N[C@H]1c2ccccc2C[C@H]1O | inconclusive: 24.3 µM [inhibitor, partial curve] | –
27 | Cc1ccc(S(=O)(=O)Nc2cccc3cccnc23)cc1 | active: 5.62 µM | –
28 | O=C(Nc1ccc2oc(-c3ccccc3)nc2c1)c1cccnc1 | inactive | –
29 | Cc1ccc(Cl)cc1N1CCN(C(=O)c2ccc3c(c2)N(Cc2ccccc2F)C(=O)c2ccccc2S3=O)CC1 (stereo not given) | inactive | –
30 | NS(=O)(=O)c1ccc(NC(=O)COC(=O)c2c3c(nc4ccccc24)/C(=C\c2ccc4c(c2)OCO4)CCC3)cc1 | inconclusive: 39.8 µM [inhibitor, single point] | –
31 | O=C(CCS(=O)(=O)c1cc(Br)cc2c1N(C(=O)C1CC1)CC2)Nc1ccc(F)cc1 | inactive | –
32 | COc1cccc(NC(CNS(=O)(=O)c2ccc(Cl)cc2)c2ccccc2)c1 (stereo not given) | inconclusive: 39.8 µM [inhibitor, single point] | –
33 | O=C(N/N=C/c1cc(Cl)ccc1O)c1ccc(Br)cc1 | active: 4.47 µM | –
34 | COc1cccc2c1C(=N)c1c(O)c3c(c(O)c1C2=O)CC(O)(C(C)=O)CC3OC1CC(N)C(O)C(C)O1 (stereo not given) | active: 1.19 µM | –
35 | COc1ccc(N(C)S(=O)(=O)c2ccc(Cl)c(C(=O)NCCc3ccc(Cl)cc3)c2)cc1 | inconclusive: 28.2 µM [inhibitor, partial curve] | –
36 | O=[N+]([O-])/C=C\c1ccc(N2CCCC2)c(F)c1 | inconclusive: 39.8 µM [inhibitor, single point] | –
37 | Nc1ccc2c(c1)Cc1c(F)cccc1-2 | inactive | –
38 | O=C(Nc1ccc2c(c1)nc1n2CCSC1)c1ccccc1 | inconclusive: 15.8 µM [inhibitor, single point] | –
39 | COc1ccc(C(=O)Cn2c(C(C)=O)nc3ccccc32)cc1 | inconclusive: 21.2 µM [inhibitor, single point] | –
40 | O=C(N/N=C/c1ccc([N+](=O)[O-])o1)c1ccc(O)cc1 | inconclusive: 14.1 µM [inhibitor, partial curve] and active: 11.2 µM | –
41 | Cc1[nH]nc(C(=O)NN=Cc2ccccc2Cl)c1N=NN(C)C | inactive | –
42 | CN1CCN(C(c2ccccc2)c2ccc(Cl)cc2)CC1 (stereo not given) | inconclusive: 17.8 µM [inhibitor, partial curve, poor fit] | –
43 | Cc1ccc(NS(=O)(=O)c2ccc3[nH]c4c(c3c2)CCCCCC4)cc1 | inconclusive: 31.6 µM [inhibitor, single point] | –
44 | CC(=O)Nc1ccc(S(=O)(=O)NCC(=O)OCC(=O)N2CCN(c3ccccc3)CC2)cc1 | inactive | –
45 | O=C(C1CC(=O)N(c2ccc3c(c2)OCCO3)C1)N1CCN(c2ccccc2O)CC1 (stereo not given) | inconclusive: 15.8 µM [inhibitor, partial curve, poor fit] | –
